Data from PubChem BioAssay AID485294 (National Center for Advancing Translational Sciences (NCATS), 2010).
In all, about 370,000 compounds went through this assay and about 150 (0.041%) were called active. Inconclusive means that the source gave no clear call. Such entries were picked first, then a sample of the others. Calls come from the whole dose curve; as a rule, active = well fitted inhibition curve with a large enough effect; inconclusive = small, poorly fitted or top-dose-only effect; inactive = flat fitted curve, though single readings scatter. Potencies of inconclusive entries are left out as doubtful fits.

Molecular target: Beta-lactamase (Escherichia coli (strain K12)) (UniProt P00811)
Experiment: qHTS Inhibitors of AmpC Beta-Lactamase (assay with detergent); note: nearly all actives have a fitted effect of over 25% in size;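 for activity change, negative = inhibition: 0% = no-compound wells and -100% = no-enzyme wells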
Settings: AmpC hydrolysis of nitrocefin, absorbance 480 nm, 0.01% Triton; activity change, negative = inhibition: at 114 µM (top of the series)
Summary of the method: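 AmpC (5.3 nM in the dispensed reagent) in 20 mM phosphate pH 7.0 with 0.01% (detergent screen) or 0.0001% Triton X-100 was preincubated with compounds for 15 min at room temperature. Nitrocefin was then added from an 800 uM solution, and hydrolysis was followed at 480 nm.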
Potency is the fitted concentration of half-maximal effect; tags give direction and shape of the fitted curve.

Sequence of UniProt P00811 (P00811 whole entry, looked up): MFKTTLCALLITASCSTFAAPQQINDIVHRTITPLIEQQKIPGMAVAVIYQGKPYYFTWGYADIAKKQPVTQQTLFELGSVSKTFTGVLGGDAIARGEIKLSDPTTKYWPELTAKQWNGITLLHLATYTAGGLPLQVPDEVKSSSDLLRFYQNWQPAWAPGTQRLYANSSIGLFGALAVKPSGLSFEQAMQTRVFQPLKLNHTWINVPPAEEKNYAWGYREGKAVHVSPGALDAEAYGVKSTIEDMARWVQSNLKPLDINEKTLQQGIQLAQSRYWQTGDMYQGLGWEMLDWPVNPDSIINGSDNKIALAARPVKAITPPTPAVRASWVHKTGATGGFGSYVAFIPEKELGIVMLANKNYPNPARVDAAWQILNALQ

SMILES	Potency	activity change, negative = inhibition
CC(C)CCNC(=O)CCc1nnc2n(CCCOC(C)C)c(=O)c3ccccc3n12	inconclusive [inhibitor, single point]	–
Cc1csc(Sc2ccc([N+](=O)[O-])cc2C(=O)OCC(=O)NC2CCCC(C)C2C)n1 (centres undefined)	inconclusive [inhibitor, full curve]	–
COc1ccc(/C=C/C(=O)N2CCOCC2)cc1OC	inconclusive [inhibitor, partial curve]	–
COc1ccc(C(=O)NCCn2ccc3ccccc32)cc1OC	inconclusive [inhibitor, full curve, poor fit]	–
O=C(NC1CCCCCC1)c1c(F)c(F)c(F)c(F)c1F	inconclusive [inhibitor, partial curve, poor fit]	–
O=S(=O)(c1ccc(NCc2ccccc2)cc1)N1CCOCC1	inconclusive [inhibitor, single point]	–
CCc1nnc(NC(=O)CSc2ncnc3scc(-c4ccc(C)cc4)c23)s1	inconclusive [inhibitor, full curve, poor fit]	–
C1=C(CCNc2ncnc3nc[nH]c23)CCCC1	–	inactive: -7.69%
CCC(Cc1ccccc1)NC(=O)C1CCN(S(=O)(=O)c2ccc3c(c2)CC(C)N3C(C)=O)CC1 (centres undefined)	inconclusive [inhibitor, full curve]	–
CCOP(=O)(OCC)C(Nc1cccc([N+](=O)[O-])c1)c1ccccc1 (centres undefined)	inconclusive [inhibitor, single point]	–
O=C(O)c1cc(O)ccc1-c1ccc(O)cc1	inconclusive [inhibitor, partial curve, poor fit]	–
Cc1cccc(C)c1NC(=O)CSc1nc(-c2ccco2)cc(C(F)(F)F)n1	inconclusive [inhibitor, partial curve, poor fit]	–
CCCn1c(NCc2cccc(OC)c2O)nc2ccccc21	–	inactive: 1.18%
CCOC(=O)c1ccccc1NC(=O)C1CSC2(C)CCC(=O)N12 (centres undefined)	inconclusive [inhibitor, full curve, poor fit]	–
N#Cc1cc(Br)ccc1N=C1CCCN1c1ccccc1	inconclusive [inhibitor, full curve, poor fit]	–
Cc1cccc(N=C(N2CCOCC2)P(=O)(N2CCOCC2)N2CCOCC2)c1	inconclusive [inhibitor, full curve, poor fit]	–
CCOc1ccc2nc(SCC(=O)NCc3ccccc3)[nH]c2c1	inconclusive [inhibitor, full curve, poor fit]	–
Cc1cc(C)nc(-n2nc(C)cc2NC(=O)CNC2CCCCC2)n1	inconclusive [inhibitor, full curve]	–
COc1ccc(-c2c(C)nn(-c3ccccc3)c2N)cc1OC	inconclusive [inhibitor, partial curve, poor fit]	–
CN1CCN(CC(O)COC(c2ccccc2)c2ccccc2)CC1 (centres undefined)	inconclusive [inhibitor, full curve, poor fit]	–
C(=N\Nc1nc2ccccc2[nH]1)/c1ccncc1	inconclusive [inhibitor, single point]	–
COc1ccc(C2=C(C)C(N3CCC(C(=O)Nc4ccc(F)cc4C)CC3)=NS2(=O)=O)cc1	–	inactive: 16.2%

SMILES	Potency	activity change, negative = inhibition
CCCCN(C(=O)c1cc(-c2ccco2)nc2ccccc12)c1c(N)n(CCCC)c(=O)[nH]c1=O	inconclusive [inhibitor, partial curve, poor fit]	–
C/C(=N\Nc1ncc(Cl)cc1Cl)c1ccc(S(=O)(=O)NCc2ccco2)cc1	inconclusive [inhibitor, full curve]	–
Cc1nc2ccccc2c2oc(C(=O)NCCN3CCCCC3C)cc12 (centres undefined)	inconclusive [inhibitor, full curve, poor fit]	–
Cc1ccc(C)c(/C=N/Nc2ccccn2)c1	inconclusive [inhibitor, single point]	–
Cc1ccc(N(CC(=O)Nc2ccc(Br)cc2)S(=O)(=O)c2cccs2)cc1	–	inactive: 2.64%
COc1ccccc1NC(C)=[N+](C)CCNS(=O)(=O)c1ccc(Cl)cc1	inconclusive [inhibitor, partial curve]	–
Cc1ccc(S(=O)(=O)N2CCC(C(=O)OCC(=O)N3CCc4ccccc43)CC2)cc1	inconclusive [inhibitor, full curve, poor fit]	–
COc1ccc(Nc2oc(-c3ccccc3Cl)nc2C#N)cc1	inconclusive [inhibitor, full curve, poor fit]	–
CS(=O)(=O)c1ccc(NCCc2ccc(S(N)(=O)=O)cc2)c([N+](=O)[O-])c1	–	inactive: 5.87%
COc1cc(/C=C/c2cc(C(=O)O)c3ccccc3n2)cc(OC)c1O	inconclusive [inhibitor, full curve, poor fit]	–
COc1cc(SC)ccc1C(=O)OCC(=O)NC1CCCCC1	inconclusive [inhibitor, partial curve, poor fit]	–
CCOc1ncccc1-c1nc(-c2cccs2)no1	–	inactive: -15.6%
COC(=O)C1=CN(c2ccc(OC)cc2)C=C(C(=O)OC)C1c1cccc(F)c1	inconclusive [inhibitor, full curve, poor fit]	–
Cc1ccc(C23CC4CC(CC(C(=O)N5CCOCC5)(C4)C2)C3)cc1	inconclusive [inhibitor, full curve]	–
CN1CCN(C(=O)c2ccc3c(=O)n(Cc4ccc(Cl)cc4)c(=S)[nH]c3c2)CC1	–	inactive: -3.1%
Cc1cccc(NC(=O)CSc2nc3ccccc3nc2N2CCOCC2)c1C	–	inactive: 25.5%
OC(COCc1ccc(Cl)cc1)CN1CCN(CC(O)COCc2ccc(Cl)cc2)CC1 (centres undefined)	inconclusive [inhibitor, full curve]	–
CC(C)C1CC(CCN2CCCCC2)(c2ccccc2)CCO1 (centres undefined)	inconclusive [inhibitor, full curve]	–
Cc1ccc(C(=O)Oc2coc(CSc3nnc(NC(=O)c4cccs4)s3)cc2=O)cc1C	inconclusive [inhibitor, full curve]	–
CCN(C(=O)CSc1nnc(-c2c[nH]c3ccccc23)n1C1CC1)C1CCS(=O)(=O)C1 (centres undefined)	inconclusive [inhibitor, full curve, poor fit]	–
O=C(CN1CCC(c2nc3ccccc3[nH]2)CC1)Nc1ccc2c(c1)OCO2	inconclusive [inhibitor, full curve, poor fit]	–
NC(=O)CC(NC(=O)Cc1cccc2ccccc12)c1ccc(NCCN2CCCC2)c([N+](=O)[O-])c1 (centres undefined)	inconclusive [inhibitor, full curve, poor fit]	–

SMILES	Potency	activity change, negative = inhibition
CCCNC(=O)c1ccc(CNc2c(N3CCC(C(=O)OCC)CC3)c(=O)c2=O)cc1	inconclusive [inhibitor, single point]	–
Cc1cccc(/C=N/n2c(-c3cc(-c4ccccc4)n[nH]3)n[nH]c2=S)c1	inconclusive [inhibitor, full curve, poor fit]	–
COC(=O)c1cn(C(=O)c2ccccc2F)nc1N	inconclusive [inhibitor, full curve, poor fit]	–
CC1CC(=O)C2=C(C1)Nc1ccccc1SC2c1ccc(F)cc1 (centres undefined)	inconclusive [inhibitor, single point]	–
Cc1ccc(-n2c3nc(=O)[nH]c(=O)c-3cc3c(C)nn(-c4ccccc4)c32)cc1C	–	inactive: 3.47%
CCC(=O)NNC(=O)CCC(=O)Nc1ccc(C)cc1C	inconclusive [inhibitor, full curve, poor fit]	–
CCC(c1nnnn1Cc1cccs1)N1CCN(c2nc3ccccc3s2)CC1 (centres undefined)	inconclusive [inhibitor, full curve, poor fit]	–
O=C(NCc1cccnc1)c1nc(-c2ccc(C(F)(F)F)cc2)no1	–	inactive: -6.19%
CCOC(=O)c1cccc(NS(=O)(=O)c2cc(-c3cnc(C4CC4)o3)ccc2C)c1	–	inactive: 7.46%
O=C(O)CC1NC(=O)N(C2CCCCC2)C1=O (centres undefined)	–	inactive: 1.48%
O=C(Nc1ccc2ccccc2n1)Nc1ccccc1F	inconclusive [inhibitor, partial curve, poor fit]	–
Cc1nn(CC(=O)NCCCN2CCC(N3CCCCC3)CC2)c(=O)c2cc(-c3ccccc3)nn12	–	inactive: -4.04%
COC(=O)c1ccc(-c2noc(CN(C)CC3CCCCO3)n2)cc1 (centres undefined)	–	inactive: 0.708%
COc1cc(C(=S)N2CCCC2)ccc1O	–	inactive: -6.48%
O=[N+]([O-])c1c(NCCCO)cc(SCc2ccco2)c2nonc12	inconclusive [inhibitor, full curve]	–
Cc1ccc(C2CC2C(=O)NNC(=S)Nc2ccc(Cl)cc2)cc1 (centres undefined)	inconclusive [inhibitor, single point]	–
CCOC(=O)N1CCC(c2cc(=O)n3[nH]cc(C(=O)OC)c3n2)CC1	inconclusive [inhibitor, full curve]	–
COc1ccc(-n2nc(C(=O)NCC(=O)NCCCN3CCN(C)CC3)c3ccccc3c2=O)cc1	inconclusive [inhibitor, full curve]	–
COc1ccc(Cl)cc1NC(=O)COC(=O)C(CC(C)C)N1C(=O)C2CC=CCC2C1=O (centres undefined)	inconclusive [inhibitor, full curve, poor fit]	–
CC(=O)c1cccc(NC(=S)N2CCN(c3ccccn3)CC2)c1	inconclusive [inhibitor, full curve, poor fit]	–
